Experimental data reported in the supplement of paper PMC4967469.
The IC50 comes from the fitted curve, where viability falls to half of the control; fits outside the tested doses are given as limits. AUC, from the same fit, is the share of area under the viability curve across the 256-fold dose range; the more sensitive the line, the further below 1. For some assays here: The top dose, if marked as inferred, was derived from the fitted curves, not read from the paper. For some assays here: Where an entry number is given, a second screen of the drug exists; the two often differ.

Legend:
Assay in all cases: Viability of human cancer cell lines after 72 h of drug (GDSC screen)
Nilotinib = compound: Cc1cn(-c2cc(NC(=O)c3ccc(C)c(Nc4nccc(-c5cccnc5)n4)c3)cc(C(F)(F)F)c2)cn1 [Nilotinib]; conditions: top dose 2 µM
Procedure: (§1)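 Human cancer cell lines in 384-well plates, medium with 10% serum, drug for 72 h over a 256-fold dose range (nine 2-fold or five 4-fold steps up to the top dose). Adherent lines were fixed and stained with the nucleic acid dye Syto60, suspension lines read with resazurin; signal relative to control wells, capped at 0 and 100%. One two-parameter sigmoid per drug and line, fitted in a mixed model over all curves with the slope shared within a line.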

Bicalutamide = compound: CC(O)(CS(=O)(=O)c1ccc(F)cc1)C(=O)Nc1ccc(C#N)c(C(F)(F)F)c1 [Bicalutamide]; conditions: top dose inferred
Procedure: as §1

Gemcitabine = compound: Nc1ccn([C@@H]2O[C@H](CO)[C@@H](O)C2(F)F)c(=O)n1 [Gemcitabine]; conditions: top dose 1.024 µM
Procedure: as §1

LFM-A13 = compound: C/C(O)=C(\C#N)C(=O)Nc1cc(Br)ccc1Br [LFM-A13]; conditions: top dose 16 µM; top dose inferred
Procedure: as §1

TW-37 = compound: CC(C)c1ccccc1Cc1cc(C(=O)Nc2ccc(S(=O)(=O)c3ccccc3C(C)(C)C)cc2)c(O)c(O)c1O [TW-37]; conditions: top dose 5 µM
Procedure: as §1

T0901317 = compound: O=S(=O)(c1ccccc1)N(CC(F)(F)F)c1ccc(C(O)(C(F)(F)F)C(F)(F)F)cc1 [T0901317]; conditions: top dose 10.24 µM; top dose inferred
Procedure: as §1

MP470 = compound: S=C(NCc1ccc2c(c1)OCO2)N1CCN(c2ncnc3c2oc2ccccc23)CC1 [MP470]; conditions: top dose 20 µM; top dose inferred
Procedure: as §1

KIN001-270 = compound: Cc1ccc(Nc2cc(-c3cccc(N4C(=O)c5ccccc5C4=O)c3)ncn2)cc1NS(C)(=O)=O [KIN001-270]; conditions: top dose 20 µM; top dose inferred
Procedure: as §1

GNF-2 = compound: NC(=O)c1cccc(-c2cc(Nc3ccc(OC(F)(F)F)cc3)ncn2)c1 [GNF-2]; conditions: top dose 1.28 µM; top dose inferred
Procedure: as §1

AUY922 = compound: CCNC(=O)c1noc(-c2cc(C(C)C)c(O)cc2O)c1-c1ccc(CN2CCOCC2)cc1 [AUY922]; conditions: top dose 0.256 µM; top dose inferred
Procedure: as §1

[1] = top dose 1.024 µM, screen: GDSC drug entry 150
[2] = top dose 10 µM, screen: GDSC drug entry 1502

Cell Line | AUC (Nilotinib) | IC50 (Nilotinib) [µM] | AUC (Bicalutamide; [1]) | IC50 (Bicalutamide; [1]) [µM] | AUC (Bicalutamide; [2]) | IC50 (Bicalutamide; [2]) [µM] | AUC (Gemcitabine) | IC50 (Gemcitabine) [µM] | AUC (LFM-A13) | IC50 (LFM-A13) [µM] | AUC (TW-37) | IC50 (TW-37) [µM] | AUC (T0901317) | IC50 (T0901317) [µM] | AUC (MP470) | IC50 (MP470) [µM] | AUC (KIN001-270) | IC50 (KIN001-270) [µM] | AUC (GNF-2) | IC50 (GNF-2) [µM] | AUC (AUY922) | IC50 (AUY922) [µM]
RPMI-8402 (T-cell lymphoblastic leukaemia, suspension) | 0.989 | > 2 | 0.988 | > 1.02 | 0.977 | > 10 | 0.414 | 0.0387 | 0.986 | > 16 | 0.553 | 0.426 | 0.912 | > 10.2 | 0.867 | 13.4 | 0.935 | > 20 | 0.991 | > 1.28 | 0.589 | 0.0268
GDM-1 (acute myeloid leukaemia, suspension) | 0.907 | > 2 | 0.984 | > 1.02 | 0.971 | > 10 | 0.519 | 0.0719 | 0.98 | > 16 | 0.835 | 3.09 | 0.851 | 7.35 | 0.892 | > 20 | 0.918 | > 20 | 0.984 | > 1.28 | 0.337 | 0.00576
MONO-MAC-6 (acute myeloid leukaemia, suspension) | 0.943 | > 2 | 0.978 | > 1.02 | 0.95 | > 10 | 0.272 | 0.0138 | 0.926 | > 16 | 0.55 | 0.43 | 0.905 | > 10.2 | 0.878 | > 20 | 0.887 | > 20 | 0.983 | > 1.28 | 0.594 | 0.0294
LB373-MEL-D (melanoma, adherent) | 0.99 | > 2 | 0.99 | > 1.02 | 0.989 | > 10 | 0.815 | 0.547 | 0.988 | > 16 | 0.746 | 1.56 | 0.983 | > 10.2 | 0.946 | > 20 | 0.975 | > 20 | 0.967 | > 1.28 | 0.868 | 0.224
NCI-H747 (large intestine, adherent) | 0.981 | > 2 | 0.979 | > 1.02 | 0.963 | > 10 | 0.435 | 0.0408 | 0.961 | > 16 | 0.511 | 0.336 | 0.937 | > 10.2 | 0.455 | 0.918 | 0.976 | > 20 | 0.894 | > 1.28 | 0.499 | 0.0159
PL-21 (acute myeloid leukaemia, suspension) | 0.957 | > 2 | 0.981 | > 1.02 | 0.966 | > 10 | 0.717 | 0.295 | 0.943 | > 16 | 0.774 | 2.29 | 0.925 | > 10.2 | 0.892 | > 20 | 0.96 | > 20 | 0.969 | > 1.28 | 0.591 | 0.0296
KM-H2 (Hodgkin lymphoma, suspension) | 0.992 | > 2 | 0.993 | > 1.02 | 0.985 | > 10 | 0.393 | 0.0341 | 0.991 | > 16 | 0.842 | 2.76 | 0.976 | > 10.2 | 0.955 | > 20 | 0.987 | > 20 | 0.992 | > 1.28 | 0.734 | 0.0654
NCI-H1975 (lung adenocarcinoma, adherent) | 0.981 | > 2 | 0.983 | > 1.02 | 0.971 | > 10 | 0.413 | 0.0357 | 0.968 | > 16 | 0.599 | 0.609 | 0.966 | > 10.2 | 0.934 | > 20 | 0.978 | > 20 | 0.983 | > 1.28 | 0.409 | 0.00866
EoL-1-cell (haematopoietic neoplasm, suspension) | 0.034 | < 0.00781 | 0.988 | > 1.02 | 0.958 | > 10 | 0.21 | 0.0103 | 0.98 | > 16 | 0.58 | 0.504 | 0.926 | > 10.2 | 0.498 | 1.24 | 0.883 | 17 | 0.984 | > 1.28 | 0.567 | 0.0238
KINGS-1 (glioma, adherent) | 0.976 | > 2 | 0.976 | > 1.02 | 0.966 | > 10 | 0.965 | > 1.02 | 0.954 | > 16 | 0.774 |  | 0.962 | > 10.2 | 0.965 | > 20 | 0.956 | > 20 | 0.96 | > 1.28 | 0.59 | 0.0309
NCI-H1304 (small cell lung carcinoma, suspension) | 0.97 | > 2 | 0.982 | > 1.02 | 0.986 | > 10 | 0.547 | 0.0869 | 0.979 | > 16 | 0.951 | > 5 | 0.988 | > 10.2 | 0.939 | > 20 | 0.987 | > 20 | 0.988 | > 1.28 | 0.737 | 0.0811
NCI-H1417 (small cell lung carcinoma, suspension) | 0.955 | > 2 | 0.978 | > 1.02 | 0.973 | > 10 | 0.754 | 0.403 | 0.972 | > 16 | 0.574 | 0.519 | 0.974 | > 10.2 | 0.703 | 5.25 | 0.982 | > 20 | 0.98 | > 1.28 | 0.677 | 0.0554
